Experimental data reported in PMC4336329 (PLoS ONE, 2015).
The whole screen tested about 310,000 compounds, of which about 14,000 (4.5%) showed an effect of 50% or more. Effects have a minus sign here. The list shows a part of the results.

Target: human ether-à-go-go-related gene (hERG) potassium channel (human, UniProt Q12809)
Assay: primary screen, population patch clamp on CHO cells stably expressing hERG
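Note: peak tail current of the secondary pulse compared with the same well before compound.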

human ether-à-go-go-related gene (hERG) potassium channel, sequence (Q12809 whole entry, looked up): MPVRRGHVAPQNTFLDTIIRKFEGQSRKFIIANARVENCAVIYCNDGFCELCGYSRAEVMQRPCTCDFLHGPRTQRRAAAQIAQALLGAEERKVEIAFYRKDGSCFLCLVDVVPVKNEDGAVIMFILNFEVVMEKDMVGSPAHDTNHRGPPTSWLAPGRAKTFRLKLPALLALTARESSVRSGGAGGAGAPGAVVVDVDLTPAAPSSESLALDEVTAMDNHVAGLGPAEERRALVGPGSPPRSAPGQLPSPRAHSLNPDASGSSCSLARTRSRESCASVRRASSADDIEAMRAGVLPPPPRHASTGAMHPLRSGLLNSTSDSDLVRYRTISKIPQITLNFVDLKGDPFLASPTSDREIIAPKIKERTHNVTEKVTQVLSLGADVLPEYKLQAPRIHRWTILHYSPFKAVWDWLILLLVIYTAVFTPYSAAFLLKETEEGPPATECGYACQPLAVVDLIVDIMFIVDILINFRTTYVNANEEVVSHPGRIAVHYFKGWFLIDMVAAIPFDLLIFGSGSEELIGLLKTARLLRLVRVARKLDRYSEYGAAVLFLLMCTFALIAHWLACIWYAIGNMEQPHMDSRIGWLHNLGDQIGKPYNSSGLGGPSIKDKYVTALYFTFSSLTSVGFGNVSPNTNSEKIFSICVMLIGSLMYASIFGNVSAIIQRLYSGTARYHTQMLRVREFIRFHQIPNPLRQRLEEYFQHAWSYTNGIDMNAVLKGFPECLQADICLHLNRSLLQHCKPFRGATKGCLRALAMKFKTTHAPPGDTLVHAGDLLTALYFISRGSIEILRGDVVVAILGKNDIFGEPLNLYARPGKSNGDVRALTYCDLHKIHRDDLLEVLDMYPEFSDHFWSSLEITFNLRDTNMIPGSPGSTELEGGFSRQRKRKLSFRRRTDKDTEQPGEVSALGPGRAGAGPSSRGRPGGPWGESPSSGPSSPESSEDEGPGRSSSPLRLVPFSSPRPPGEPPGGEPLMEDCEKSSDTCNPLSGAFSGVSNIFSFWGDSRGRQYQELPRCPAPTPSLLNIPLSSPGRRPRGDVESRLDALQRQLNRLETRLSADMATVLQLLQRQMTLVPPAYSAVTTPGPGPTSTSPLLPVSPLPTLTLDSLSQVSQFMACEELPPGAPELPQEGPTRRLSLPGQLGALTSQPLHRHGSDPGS

| Compound | hERG current change (%, negative = inhibition) at 10uM [%] |
| --- | --- |
| CCC(CC)c1nnc(NC(=O)c2c(-c3ccccc3)noc2C)s1 | -9.78 |
| COc1cc(C(=O)N2CCN(c3cccc(C)c3C)CC2)ccc1OCC(=O)N1CCOCC1 | -31.3 |
| Cc1ccsc1C(=O)NCCc1ccco1 | 6.59 |
| COc1ccccc1N1CCN(C(=O)c2cc3c(=O)n(C)c4ccccc4c3n2C)CC1 | -17.3 |
| Cc1ccc(S(=O)(=O)N2CCOCC2)cc1N/N=C(\C#N)c1nc2ccccc2[nH]1 | 12.7 |
| COc1ccc(CCNC(=O)CCOc2ccc(C(C)(C)C)cc2)cc1OC | 5 |
| CCCCn1nc2cc(C(=O)NCc3ccc(C(F)(F)F)cc3C(F)(F)F)ccc2c1OCC | -6.44 |
| N#CCCS(=O)(=O)c1ccc(N)cc1 | 5.48 |
| O=C(C(=O)N1CCOCC1)c1cn(Cc2ccc(F)cc2)c2ccccc12 | -32 |
| CCN1CCc2[nH]c3ccccc3c2C1 | -3.26 |
| CSC1=NCCN1C(=O)C12CC3CC(CC(C3)C1)C2 | -5.7 |
| COc1ccc(F)cc1S(=O)(=O)Nc1ccncc1 | 18.4 |
| COc1ccc(OCCSc2ncccn2)cc1 | -2.08 |
| CCOC(=O)c1sc2nc(CC(=O)OC)nc(NCc3ccc(F)cc3)c2c1C | -6.21 |
| C=CCn1c(O)c(C(C)=Nc2ccc3c(c2)CCC3)c(=O)[nH]c1=O | -2.18 |
| O=C(NCc1cccnc1)c1ccc(NS(=O)(=O)c2ccc(F)cc2)cc1 | 8.41 |
| Cc1c(NC(=O)/C(C#N)=C/c2ccccc2)c(=O)n(-c2ccccc2)n1C | -0.445 |
| Cc1cc(C(=O)NNC(=O)CCCOc2ccccc2)c(C)o1 | 0.675 |
| COC(=O)c1[nH]c2ccc(Cl)cc2c1NC(=O)CCN1CCN(C2CCCCC2)CC1 | -80 |
| CCN1C(=O)C(CC(=O)Nc2ccc(OC)cc2)N(Cc2ccc3c(c2)OCO3)C1=S (centres unmarked) | -17 |
| Cc1nc(NC(=O)c2ccccc2)sc1C1(C)CC(c2ccccc2F)=NO1 (centres unmarked) | 3.58 |
| CN(C)c1ccc(C(=O)C(=O)c2ccccc2)cc1 | 5.8 |

| Compound | hERG current change (%, negative = inhibition) at 10uM [%] |
| --- | --- |
| O=C1CCc2cc(S(=O)(=O)NC(C(=O)NCc3cccnc3)c3ccccc3)ccc2N1 (centres unmarked) | 16.2 |
| Cc1ccccc1C(=O)NC(=S)NCc1ccccc1 | 6.13 |
| Cc1ccc2[nH]c3c(c2c1)CN(C(=O)CN1CCCc2ccccc21)CC3 | 0.0121 |
| CC(=O)c1cc(-c2ccccc2)[nH]c1N1CCOCC1 | 9.55 |
| O=C(Nc1ccc(NC(=O)c2ccccc2F)cc1)c1cccs1 | 34.1 |
| CC(=O)Nc1cccc(/C(C)=N/NC(=O)c2ccc3c(c2)OCO3)c1 | 7.58 |
| Cn1c(NC(=O)c2ccccc2C(F)(F)F)cc(=O)n(C)c1=O | -33 |
| CC(=O)Nc1nc(-c2ccccc2)nc(-c2ccccc2OC(C)=O)n1 | -30.1 |
| CC1(C)CC(=O)C(CC(=O)NC2CCCc3ccccc32)C(=O)C1 (centres unmarked) | 15.1 |
| Clc1ccc(SCc2nc3ccccc3[nH]2)cc1 | -11.2 |
| O=C(COc1ccccc1C(=O)O)Nc1ccc(SC(F)F)cc1 | 19.8 |
| CCCCc1ccc(/C=C2\C(=O)c3ccccc3C(O)=C2C(=O)OCC)cc1 | 15.8 |
| Cc1ccc(CNC(=O)c2cc3c(=O)n(C)c4ccccc4c3n2C)cc1 | 11.6 |
| CSc1ccc(/C=C2/C(=N)N3N=C(CC(=O)N4CCCC4)SC3=NC2=O)cc1 | 10.8 |
| O=C(CN(CC1CCCO1)C(=O)CNS(=O)(=O)c1ccc(Cl)cc1)NCCc1ccccc1 (centres unmarked) | -20.8 |
| CCc1cc[n+](-c2nc3ccccc3nc2C(=C=[N-])C#N)cc1 | 2.09 |
| CCn1c(-c2ccc([N+](=O)[O-])cc2)n[nH]c1=S | 9.07 |
| Cc1cc(NC(=O)CSc2nc(-c3ccccc3)cs2)no1 | 20.5 |
| CN(Cc1ccccc1)C(=O)c1ccc2c(c1)OCO2 | -2.29 |
| Cn1cnnc1SCC(=O)N1N=C(c2ccc(Cl)cc2)CC1c1ccco1 (centres unmarked) | -32.5 |
| COc1ccccc1CN(C)C(=O)CN1CCN(S(=O)(=O)c2ccc3c(c2)OCCCO3)CC1 | -9.15 |
| COC(=O)CN(C(=S)Nc1ccc(F)cc1)C1CC(=O)N(c2ccc(OC)cc2)C1=O (centres unmarked) | 2 |

| Compound | hERG current change (%, negative = inhibition) at 10uM [%] |
| --- | --- |
| COc1cc(/C(C)=N/N2CCN(c3ccccc3OC)CC2)ccc1O | -9.07 |
| CC(C)c1ccc(NC2CCCN(C(=O)c3ccc(Cn4cnnn4)cc3)C2)cc1 (centres unmarked) | -4.24 |
| COC(=O)CSc1nnc(-c2ccc(NS(=O)(=O)c3ccccc3)cc2)o1 | 9.9 |
| Cc1ccc(CSCC(=O)N2CCN(c3ccccc3)CC2)cc1 | -9.06 |
| Nc1cc(=O)n(Cc2ccccc2)c(=O)n1-c1ccc(Cl)cc1 | -1.08 |
| CC(OC(=O)/C=C/c1cccc(Cl)c1)C(=O)NC1CCCCC1C (centres unmarked) | 25.9 |
| COc1cc(C(=O)NNC(=O)CNC(=O)c2ccc(Br)o2)cc(OC)c1OC | 18.7 |
| COc1ccc(N2CCN(C(=O)c3ccc(Cn4c(=S)[nH]c5ccc(N6CCOCC6)cc5c4=O)cc3)CC2)cc1 | 6.17 |
| Cn1cc(S(=O)(=O)N2CCCC2)cc1C(=O)NCc1ccccc1 | -2.54 |
| Cc1cc(=O)oc2c1c(C)nn2-c1nn[nH]n1 | -7.13 |
| CC(C)(CO)NS(=O)(=O)c1ccc2c(c1)C(=O)c1cc(S(=O)(=O)NC(C)(C)CO)ccc1-2 | 16.2 |
| CN1CCN2c3ccccc3CC3(C(=O)N(C)C(=O)N(C)C3=O)C2C1 (centres unmarked) | 15.7 |
| Cc1ccc(NC2CCCN(C(=O)c3ccc4nccnc4c3)C2)cc1C (centres unmarked) | -14.9 |
| COC(CNC(=O)c1ccc2nc3ccccc3c(=O)n2c1)OC | 10.8 |
| O=C(Cc1ccccc1)OCn1nnc2ccccc2c1=O | 6.75 |
| CC1CN(S(=O)(=O)c2cccc(-c3csc(-c4ccccc4)n3)c2)CC(C)O1 (centres unmarked) | 0.164 |
| Cc1oc2cc3oc(=O)c(CC(=O)N[C@@H](C)C(=O)NC(Cc4ccc(Cl)cc4)C(=O)O)c(C)c3cc2c1C (some centres unmarked) | 7.36 |
| COc1ccc(CC(=O)Oc2ccc(C)cc2Br)cc1S(=O)(=O)N1CCOCC1 | 5.5 |
| COc1cccc(-n2c(SCC(N)=O)nnc2-c2c[nH]c3ccccc23)c1 | -14.6 |
| Cc1ccc(S(=O)(=O)N2CCN(C(=O)CC(C)n3nc(C)c(Cl)c3C)CC2)cc1 (centres unmarked) | -17.6 |
| Cc1cc(C(=O)NNC(=S)Nc2ccccc2C)cs1 | 18.8 |
| COc1ccc(C)cc1NC(=O)CN1CCN(CC(=O)Nc2ccccc2F)CC1 | -48.7 |

| Compound | hERG current change (%, negative = inhibition) at 10uM [%] |
| --- | --- |
| O=C(c1nn(Cc2ccccc2)c(=O)c2ccccc12)N1CCN(C/C=C/c2ccccc2)CC1 | -57.7 |
| COc1ccccc1NS(=O)(=O)c1ccc(-c2cc(C)no2)s1 | -69.5 |
| Cc1cccc(NC(=O)c2csnn2)n1 | 15.2 |
| Cc1cccc(N2CCN(C(=O)c3cn4ccccc4n3)CC2C)c1 (centres unmarked) | 8.18 |
| COc1ccc(O[C@H]2C=C[C@@H](c3ccccc3)O[C@@H]2COC(=O)CC/C(C)=N/OC[C@@H](O)[C@H]2O[C@@H]3OC(C)(C)O[C@@H]3[C@H]2O)cc1 | -30.7 |
| CC(=O)Nc1ncc2c(n1)CC(c1ccco1)CC2=O (centres unmarked) | -14.2 |
| Clc1ccc(-c2nc3cc(CN4CCCCC4)ccc3o2)cc1 | -41.4 |
| O=C(Nc1ccc(Oc2ccccc2)cc1)c1ccco1 | -26.2 |
| O=C1CC2c3ccccc3C1C1C(=O)N(CCO)C(=O)C21 (centres unmarked) | 21.5 |
| COCCCNc1nc2c(c(=O)[nH]c(=O)n2C)n1CC(O)COc1ccccc1 (centres unmarked) | -14.9 |
| Cc1ccccc1NC(=O)N1CCc2ccccc2C1 | 6.13 |
| Cc1cc(C(F)(F)F)nc(SCC(=O)Nc2c(C)n(C)n(-c3ccccc3)c2=O)n1 | -28.4 |
| CCN(CC)S(=O)(=O)c1cccc(NC(=O)/C=C/c2cccc([N+](=O)[O-])c2)c1 | 10.9 |
| O=C(O)C(=O)O.O=C(c1ccco1)N1CCN(Cc2ccccc2F)CC1 | 3.7 |
| Cc1c(NC(=O)c2cn3ccccc3n2)cccc1-n1cnnn1 | 7.21 |
| CCN1C(=O)C(CC(=O)NC2CCCCC2)N(CC)C1=O (centres unmarked) | -3.06 |
| COc1ccc(NC(=O)CN(C)C(=O)C23CC4CC(CC(C4)C2)C3)cc1 | -30.8 |
| COc1ccc(CNC(=O)CNC(=O)N2CC(=O)Nc3ccccc32)cc1 | 0.58 |
| N#CCCn1cc(C(=O)Nc2ccccn2)c(-c2ccccc2)n1 | 2.78 |
| COC(=O)c1sc(S(=O)(=O)NCC(=O)O)c(C(=O)OC)c1C | 10.8 |
